{"source": "PubChem BioAssay AID686979", "about": "(National Center for Advancing Translational Sciences (NCATS), 2013)", "note": "In all, about 420,000 compounds went through this assay and about 50,000 (12%) were called active. This list was built around the results that the source calls inconclusive (neither active nor inactive); the mix of calls is not that of the screen. The call rests on the fitted dose curve; in most records, active means well fitted inhibition curve with a large enough effect; inconclusive means small, poorly fitted or top-dose-only effect; inactive means flat fitted curve, though single readings scatter. Potencies of inconclusive entries are left out as doubtful fits. Potency means the concentration at half of the fitted maximal effect; tags describe the fitted curve by direction and shape.", "data": [{"assay": "qHTS for Inhibitors of human tyrosyl-DNA phosphodiesterase 1 (TDP1): qHTS in cells in presence of CPT; further: nearly all actives have a fitted effect of over 55% in size", "settings": "chicken DT40 Tdp1-/-;hTDP1 cells + 20 nM CPT, ATP luminescence, 48 h; series mostly up to 46.2 µM", "in_short": "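Chicken DT40 Tdp1-/- cells complemented with human TDP1, 400 cells/well, exposed to compounds plus 20 nM camptothecin for at least 48 h at 37 C; viability read as ATP content by CellTiter-Glo luminescence.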", "values": [{"smiles": "O=C1CC(N2CCN(Cc3ccccc3)CC2)C(=O)N1", "note": "(centres undefined)", "Potency": "inactive"}, {"smiles": "CCN1CCN(CCCNC(=O)c2cnn(-c3ccc(C)cc3)c2C2CCN(C(=O)OC(C)(C)C)CC2)CC1", "Potency": "inconclusive [inhibitor, partial curve]"}, {"smiles": "CCCCN(C)CCCNC(=O)Cn1cc2c(n1)-c1c(oc(C(=O)N3CCCC3)c1C)CC2", "Potency": "inconclusive [inhibitor, partial curve, poor fit]"}, {"smiles": "CC(C)(C)OC(=O)N1CCC[C@@H]1C(=O)NCc1ccccc1Cl", "Potency": "inactive"}, {"smiles": "CCCc1nc2nc(C)c(NS(=O)(=O)c3ccc([N+](=O)[O-])cc3)c(=O)n2[nH]1", "Potency": "inactive"}, {"smiles": "C=CCOc1ccc(CNn2nnnc2N)cc1", "Potency": "inconclusive [inhibitor, single point]"}, {"smiles": "CN1C(=O)c2ccccc2Sc2ccc(NC(=O)N3CCCC3)cc21", "Potency": "inconclusive [inhibitor, single point]"}, {"smiles": "N#CC1(Nc2ccc(S(N)(=O)=O)cc2)CCCC1", "Potency": "inconclusive [inhibitor, partial curve, poor fit]"}, {"smiles": "Cc1ccc(NC(=O)c2cc(-c3cccs3)on2)cc1C", "Potency": "inconclusive [inhibitor, single point]"}, {"smiles": "CC(C)(C)c1nnc2sc(SCC(=O)c3ccc4c(c3)OCCO4)nn2c1=O", "Potency": "inconclusive [inhibitor, single point]"}, {"smiles": "CCCn1c(SC(C)C(=O)NCC2CCCO2)nc2sc3c(c2c1=O)CCC3", "note": "(centres undefined)", "Potency": "inconclusive [inhibitor, single point]"}, {"smiles": "Cc1cccc(Nc2nc(N)nc(CCl)n2)c1", "Potency": "active: 13 µM"}, {"smiles": "CCCCC(c1nc2ccccc2[nH]1)N(C(=O)c1ccccc1)c1ccccc1[N+](=O)[O-]", "note": "(centres undefined)", "Potency": "inconclusive [inhibitor, single point]"}, {"smiles": "COc1ccc(S(=O)(=O)NCCS(=O)(=O)N2CCN(c3ccccc3F)CC2)cc1", "Potency": "inconclusive [inhibitor, single point]"}, {"smiles": "COc1cccc(N(CC(=O)NC2CCCCC2)C(=O)CCCC(=O)Nc2ccccn2)c1", "Potency": "inactive"}, {"smiles": "CC(C)c1ccc(OCC(=O)NNC(=S)NC(=O)c2ccco2)c(Br)c1", "Potency": "inconclusive [inhibitor, single point]"}, {"smiles": "COc1ccc(CNC(=O)C2CCC(CNS(=O)(=O)c3cccc4nsnc34)CC2)cc1", "note": "(centres undefined)", "Potency": "inactive"}, {"smiles": "O=S(=O)(c1ccccc1)N1CCN(Cc2nnc(-c3ccccc3)o2)CC1", "Potency": "inactive"}, {"smiles": "COc1cc2c(cc1OC)C(C(=O)Nc1cccc(C)n1)C(c1cccnc1)N(C)C2=O", "note": "(centres undefined)", "Potency": "inconclusive [inhibitor, single point]"}, {"smiles": "C[C@H](OC(=O)NCc1ccc(C(F)(F)F)cc1)[C@@H]1O[C@@]2(C)CCC[C@@H]1O2", "Potency": "inconclusive [inhibitor, single point]"}, {"smiles": "CN1C(C(=O)NCCc2cccs2)CC2Cn3c(nc4cc(Cl)c(Cl)cc43)C21", "note": "(centres undefined)", "Potency": "inconclusive [inhibitor, partial curve, poor fit]"}, {"smiles": "COc1ccc(/C=C2\\Oc3ccccc3C2=O)cc1", "Potency": "inconclusive [inhibitor, partial curve]"}, {"smiles": "COC(=O)[C@@]12C[C@@H](CC(=O)NCc3cccc4ccccc34)C(=O)N(Cc3ccccc3)C1=CCC(C)(C)C2", "Potency": "inconclusive [inhibitor, single point]"}, {"smiles": "c1csc(-c2nc3ccccn3c2Nc2ccc3c(c2)OCCO3)c1", "Potency": "inconclusive [inhibitor, single point]"}, {"smiles": "O=C(COC(=O)c1ccc[n+]([O-])c1)Nc1ccc(Cl)cc1[N+](=O)[O-]", "Potency": "inactive"}, {"smiles": "COc1cc(S(=O)(=O)NCc2ccncc2)ccc1Br", "Potency": "active: 8.2 µM"}, {"smiles": "Cc1ccc(S(=O)(=O)Nc2cccc(C(=O)NCc3ccc(S(N)(=O)=O)cc3)c2)cc1", "Potency": "inconclusive [inhibitor, single point]"}, {"smiles": "CCN(CC)CCCNC(=S)N(Cc1cccs1)Cc1cc2cc3c(cc2[nH]c1=O)OCCO3", "Potency": "inactive"}, {"smiles": "C/C(=N\\N1C(=O)c2ccccc2NC1c1ccco1)c1ccccc1O", "note": "(centres undefined)", "Potency": "inactive"}, {"smiles": "Cc1ccc(S(=O)(=O)N2CCCCC2)cc1NC(=S)NC(=O)c1ccco1", "Potency": "inconclusive [inhibitor, single point]"}, {"smiles": "COc1cccc(-n2c(SCC(=O)Nc3ccc(F)cc3F)nc3c([nH]c4ccccc43)c2=O)c1", "Potency": "inconclusive [inhibitor, single point]"}, {"smiles": "CN(CC(=O)Nc1ccc(F)c(F)c1F)c1ncnc2sccc12", "Potency": "inconclusive [inhibitor, single point]"}, {"smiles": "C=CCn1c(=O)c(C(=O)Nc2cccnc2)c(O)c2ccccc21", "Potency": "inconclusive [inhibitor, single point]"}, {"smiles": "O=C(N/N=C/c1cc(Br)ccc1O)c1cccc(N2CCCC2=O)c1", "Potency": "active: 1.64 µM"}, {"smiles": "CC(=O)c1ccc(N2CCN(c3ncnc4onc(-c5ccc(Cl)cc5)c34)CC2)cc1", "Potency": "active: 23.1 µM"}, {"smiles": "O=C(c1cccc(NS(=O)(=O)c2ccc(F)c(F)c2)c1)N1CCN(Cc2ccccc2)CC1", "Potency": "inconclusive [inhibitor, single point]"}, {"smiles": "CCCCOC(=O)c1ccc(NC(=O)CSc2nc3c(c(=O)[nH]2)CCC3)cc1", "Potency": "inconclusive [inhibitor, single point]"}, {"smiles": "O=C(Nc1cccc(F)c1)c1cccnc1NCCc1ccccc1", "Potency": "inconclusive [inhibitor, single point]"}, {"smiles": "O=C(N=Nc1c(O)n(C2OC(=O)c3ccccc32)c2ccccc12)c1ccc(O)cc1", "note": "(centres undefined)", "Potency": "inconclusive [inhibitor, single point]"}, {"smiles": "CC(C)[N+]1=C2C=CC=CC=C2SC12C([N+](=O)[O-])=CC(=[N+]([O-])[O-])C=C2[N+](=O)[O-]", "note": "(centres undefined)", "Potency": "inconclusive [inhibitor, full curve]"}, {"smiles": "Cc1ccc(C)n1-c1ccc(C(=O)NCC2CCCO2)cc1", "note": "(centres undefined)", "Potency": "active: 12.6 µM"}, {"smiles": "CCn1c(SCc2cccc(OC)c2)nc2ccccc2c1=O", "Potency": "active: 10.3 µM"}, {"smiles": "COc1cc(-c2nc3cccc(C)n3c2Nc2ccc3c(c2)OCCO3)ccc1O", "Potency": "inconclusive [inhibitor, single point]"}, {"smiles": "Cc1ccsc1C(=O)OCC(=O)Nc1nnc(-c2ccccc2)o1", "Potency": "inconclusive [inhibitor, partial curve, poor fit]"}, {"smiles": "COc1ccccc1CNC(=O)c1cccc(NC(=O)N2CCSc3ncccc32)c1", "Potency": "inconclusive [inhibitor, single point]"}, {"smiles": "Cc1cc(-c2nc(C)c(C(=O)NN)s2)no1", "Potency": "inactive"}, {"smiles": "O=C(Nc1ccc(F)cc1)C(c1cccc(F)c1)N1CCN(c2ccncc2)CC1", "note": "(centres undefined)", "Potency": "inconclusive [inhibitor, single point]"}, {"smiles": "COc1ccc(COCC(O)CN2CCC(C(N)=O)CC2)cc1OC", "note": "(centres undefined)", "Potency": "inactive"}, {"smiles": "O=C(C1CC1)N1CCN(c2ccnc3cc(Cl)ccc23)CC1", "Potency": "inconclusive [inhibitor, single point]"}, {"smiles": "Cc1c(C(=O)NCc2ccc(F)cc2)sc2nc(-c3ccccc3)cn12", "Potency": "active: 18.4 µM"}, {"smiles": "Cc1nnc(N2C(=O)c3oc4ccccc4c(=O)c3C2c2ccc(F)cc2)s1", "note": "(centres undefined)", "Potency": "inactive"}, {"smiles": "COC(=O)c1c(-c2ccc(Cl)cc2)noc1N1CCN(c2cccc(OC)c2)CC1", "Potency": "active: 16.4 µM"}, {"smiles": "CCOC(=O)c1ccccc1-c1csc(NS(=O)(=O)c2ccc(Cl)cc2)n1", "Potency": "inconclusive [inhibitor, partial curve]"}, {"smiles": "Cc1noc(C)c1-c1nc(NC2CC2)c2ccccc2n1", "Potency": "inactive"}, {"smiles": "CCOc1cccc2sc(N(CCN(CC)CC)C(=O)c3cccc(N4C(=O)CCC4=O)c3)nc12", "Potency": "inconclusive [inhibitor, single point]"}, {"smiles": "O=C(NCCN1C(=O)S/C(=C\\c2ccc(Cl)cc2)C1=O)C1=COCCO1", "Potency": "inactive"}, {"smiles": "COc1ccc(OC)c(CN2CCN(C(=O)c3ccc(C)c(S(=O)(=O)Nc4ccccc4OC)c3)CC2)c1", "Potency": "inconclusive [inhibitor, single point]"}, {"smiles": "Cc1ccc(Cl)cc1NC(=O)c1cc(-c2ccc3c(c2)OCCO3)on1", "Potency": "active: 14.6 µM"}, {"smiles": "Cc1ccc2ncnc(NCc3ccco3)c2c1", "Potency": "active: 7.08 µM"}, {"smiles": "COc1cccc(-c2cnc3c(NC(C)=O)cc(-c4cccc(NS(C)(=O)=O)c4)cn23)c1", "Potency": "active: 25.9 µM"}, {"smiles": "CC(=O)c1ccc(NC(=S)NCCc2cccc(Cl)c2)cc1", "Potency": "inconclusive [inhibitor, single point]"}, {"smiles": "O=C(Cc1ccc(NC(=O)N2CCCCc3ccccc32)cc1)Nc1ccccc1Br", "Potency": "inconclusive [inhibitor, single point]"}, {"smiles": "COc1ccc(-c2cc(=O)oc3cc(OCC(=O)NCC4CCC(C(=O)O)CC4)ccc23)cc1", "note": "(centres undefined)", "Potency": "inactive"}, {"smiles": "CC(C)C(=O)N(Cc1ccc2c(c1)OCO2)Cc1ccccn1", "Potency": "inconclusive [inhibitor, partial curve]"}, {"smiles": "O=C(NCc1ccccc1)C1=C[C@H](c2ccc(Br)cc2)C[C@H](OCCCCO)O1", "Potency": "inconclusive [inhibitor, single point]"}, {"smiles": "CN(C)Cc1cc(C(C)(C)c2ccccc2)ccc1O", "Potency": "active: 23.1 µM"}, {"smiles": "COc1ccc(/C=N/N(C)c2cc(=O)n(C)c(=O)[nH]2)cc1OC", "Potency": "inactive"}, {"smiles": "Cc1ccccc1CN1c2ccccc2-c2nc(SCC(=O)Nc3cc(F)ccc3F)ncc2S1(=O)=O", "Potency": "inconclusive [inhibitor, single point]"}, {"smiles": "CSCC[C@@H](CO)NC(=O)[C@H]1O[C@@H](n2ccc(N)nc2=O)[C@H](O)[C@@H]1O", "Potency": "inactive"}]}]}
